In the supplement of paper PMC3334620:
In all, about 33,000 sequences were measured (“E-score (-0.5 to 0.5)”: median about -0.043, highest 2% from about 0.37 on). Some of the results follow.

target: T1, Upc2 (UniProt Q12151); experiment: PBM E-score (8-mer binding enrichment) (E-score (-0.5 to 0.5)); higher = stronger / more preferred TF binding; most listed sequences are background and not binding sites; settings: protein concentration: 200 nM; construct: GST-full length
T1 sequence: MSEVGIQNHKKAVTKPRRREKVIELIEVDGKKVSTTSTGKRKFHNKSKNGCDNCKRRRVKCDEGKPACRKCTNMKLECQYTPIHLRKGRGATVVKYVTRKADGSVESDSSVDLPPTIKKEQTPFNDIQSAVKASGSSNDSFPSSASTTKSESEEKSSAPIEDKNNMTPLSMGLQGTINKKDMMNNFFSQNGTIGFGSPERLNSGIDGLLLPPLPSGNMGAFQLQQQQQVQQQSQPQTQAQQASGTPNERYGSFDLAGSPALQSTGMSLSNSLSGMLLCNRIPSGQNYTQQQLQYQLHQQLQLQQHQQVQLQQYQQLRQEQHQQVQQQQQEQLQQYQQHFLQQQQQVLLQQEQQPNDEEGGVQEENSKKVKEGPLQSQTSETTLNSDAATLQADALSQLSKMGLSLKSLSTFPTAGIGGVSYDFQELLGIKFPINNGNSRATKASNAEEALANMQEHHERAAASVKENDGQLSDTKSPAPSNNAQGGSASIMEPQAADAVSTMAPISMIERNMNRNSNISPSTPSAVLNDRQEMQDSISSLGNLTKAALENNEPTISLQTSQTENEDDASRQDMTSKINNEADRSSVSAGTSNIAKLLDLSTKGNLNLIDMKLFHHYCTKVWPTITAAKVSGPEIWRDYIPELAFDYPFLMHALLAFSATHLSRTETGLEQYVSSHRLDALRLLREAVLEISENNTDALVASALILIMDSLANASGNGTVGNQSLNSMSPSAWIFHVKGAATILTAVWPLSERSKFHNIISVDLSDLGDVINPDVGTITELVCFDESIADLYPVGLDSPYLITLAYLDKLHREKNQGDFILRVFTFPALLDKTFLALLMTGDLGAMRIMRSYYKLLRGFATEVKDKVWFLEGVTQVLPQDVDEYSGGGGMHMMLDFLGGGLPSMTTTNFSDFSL
How it was run: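 For each ungapped eight-base word taken together with its reverse complement, the Universal PBM Analysis Suite assigned an E-score. Binding data came from GST-tagged yeast transcription factors, applied at about 100-200 nM, on universal all-10-mer Agilent arrays made double-stranded by primer extension. Fluorescent anti-GST marked bound protein, and scans were normalised with masliner.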

Row | Sequence | PBM E-score
1 | ACTCGAGC | -0.0784
2 | TAGGAGAA | -0.184
3 | AAATCGGT | 0.0318
4 | AGTATTTC | -0.0348
5 | GATTCTCC | -0.104
6 | TATGTGGA | 0.0189
7 | ATGACCGG | -0.124
8 | CCCCTGAC | -0.288
9 | CAAGTACC | 0.0185
10 | ACGGAGTG | 0.243
11 | AGCGCCAT | -0.167
12 | AGATCCCT | -0.0228
13 | AACTCTAG | -0.0752
14 | AGGTCGGC | -0.241
15 | CTCCTCGC | 0.0295
16 | AGCCGCTC | 0.0179
17 | ATATGCGG | 0.112
18 | CTGCTAAC | -0.228
19 | ACCACACC | -0.185
20 | AAGGAGGT | -0.0817
21 | GGGACCCC | -0.292
22 | AGCCGCTG | -0.194
23 | ACCCGTGA | -0.0228
24 | CACCTTCA | -0.254
25 | CCTGTCGA | -0.205

Row | Sequence | PBM E-score
26 | CTGGTAAC | 0.0344
27 | ACCATCCC | -0.222
28 | CTTCCCTA | -0.306
29 | ACTCCAAA | -0.141
30 | AGTTGCCA | -0.182
31 | TGCGAACA | 0.0931
32 | GGGGAAGA | -0.193
33 | ATCGCTAG | -0.0468
34 | AAAATGAG | -0.162
35 | CACAGGGG | -0.0559
36 | CACTGTGC | -0.118
37 | AATGACGG | -0.163
38 | ACATTGAG | -0.235
39 | GACTTAGA | 0.0575
40 | TTACATAA | 0.0703
41 | CACCCTTC | -0.0111
42 | TCCGCGGA | -0.0509
43 | CAACAAAA | 0.0632
44 | CTCCGGAG | -0.132
45 | ACTCTATG | -0.0145
46 | ACGGTCAG | -0.0706
47 | AGGAAACG | 0.289
48 | CCCGTAAC | 0.248
49 | TGAGGCAA | 0.00813
50 | CACTTGCA | -0.216

Row | Sequence | PBM E-score
51 | CAAGGCGA | -0.117
52 | GGTGAGAA | -0.233
53 | ACTCGATC | -0.0825
54 | ACTGTGAA | 0.062
55 | ATGCTATC | 0.0893
56 | CTAAGTGA | -0.0744
57 | CAGTTACG | 0.161
58 | TCCAGAAA | -0.147
59 | CGACCCAA | 0.128
60 | GAATTGTC | -0.144
61 | ATCTGAGG | -0.195
62 | CTCCCGCC | -0.238
63 | AGCAGAGG | -0.293
64 | ACGTTCTC | 0.124
65 | ATACCCGA | 0.223
66 | AGAGTAGG | -0.156
67 | ACTCTTGC | -0.207
68 | CGCTTCAC | -0.0342
69 | GGGGAACA | -0.151
70 | AGCAGTAA | -0.146
71 | AGTCAAAT | -0.257
72 | ATGATAGG | -0.322
73 | AGGGTCCA | -0.192
74 | GCATACGC | 0.296
75 | CCTCGCAA | 0.117

Row | Sequence | PBM E-score
76 | GCGCGCCA | 0.0851
77 | ACATCTAA | -0.0123
78 | AACCCTCG | 0.00662
79 | GTGGTTTA | -0.0991
80 | CAGAGCGA | 0.0014
81 | TTATTCAA | 0.157
82 | AGGGGCGA | -0.253
83 | CGCCGCGC | -0.164
84 | TATCGCAA | -0.0957
85 | CAGAAGCC | -0.188
86 | GAGTGAAC | 0.115
87 | GGAGACAC | -0.117
88 | CACTATAC | 0.301
89 | AATGTGTA | 0.0776
90 | AGGGACGG | -0.161
91 | ATACCTGC | 0.0206
92 | ATCGTAAT | 0.287
93 | CCATTCAA | 0.0219
94 | AGCTAATG | -0.0484
95 | CGAGACAA | -0.00303
96 | ACTTAACA | -0.0773
97 | AGCTCACG | -0.078
98 | ACAAAGCA | -0.0865
99 | CGCTACAC | 0.0581
100 | ATGGTTGC | -0.0503

Row | Sequence | PBM E-score
101 | ATGACGTA | 0.123
102 | CAAGAACG | 0.296
103 | ATGTTTTC | 0.138
104 | ATCAAATA | 0.0247
105 | GATGTGCA | -0.038
106 | GCAGCGAA | 0.1
107 | ATTCTAGG | 0.0288
108 | AGGAACAG | -0.302
109 | CTACAGAC | 0.0491
110 | ATCCTAAT | 0.0007
111 | ACCCAGCA | -0.0979
112 | ATCATCTA | -0.0847
113 | CCTTGTTC | 0.021
114 | CACCCAGA | -0.246
115 | CATTGGCG | -0.156
116 | ATAGTGAC | 0.136
117 | AATGTCAG | -0.178
118 | CAAAGATC | 0.067
119 | ACTCTCTA | -0.108
120 | GCCGACGC | -0.132
121 | CCTAGGCC | -0.378
122 | CAAAGGGG | -0.22
123 | AGATTCAG | 0.013
124 | AGCCAGCG | -0.0686
125 | CGGAGTGA | -0.102

Row | Sequence | PBM E-score
126 | ACTCTCCT | -0.097
127 | ACAGCATA | 0.0968
128 | AGTTTACC | 0.0436
129 | ACCGGCAA | 0.0667
130 | GACGACAC | -0.079
131 | AACAGCCG | -0.0317
132 | CAGATGAA | -0.046
133 | GCAGCGCA | -0.114
134 | CTTTATCA | -0.102
135 | ATACAAGG | -0.116
136 | ATGCATCA | 0.0481
137 | AAACGCCC | 0.249
138 | CACAACTC | 0.157
139 | CAAACAAG | -0.055
140 | GCATCTCA | -0.0439
141 | CCCCCTTC | -0.333
142 | CAACATTC | -0.112
143 | TGCCACAA | -0.216
144 | CGTTACGC | 0.282
145 | CTAAAAGC | -0.0131
146 | AAATGTTC | 0.04
147 | CTTTGAGA | -0.0679
148 | ATTCCGCA | -0.126
149 | AACCCATG | -0.154
150 | AAGAGCAT | -0.0379

Row | Sequence | PBM E-score
151 | ACATGGTG | -3e-05
152 | ACGGGACC | 0.0545
153 | CTCGAGGA | 0.00787
154 | ATGGCAAG | -0.133
155 | AGTATCAG | -0.235
156 | AGCGCTTC | -0.0672
157 | CCCGAACG | 0.293
158 | CAAAATGG | -0.19
159 | TAACGGAA | 0.175
160 | CACTTGGG | -0.342
161 | ACCCGGGT | -0.118
162 | AAGCTCAC | -0.0662
163 | AGATGGCT | -0.188
164 | CCCCTCGG | 0.257
165 | ACCACGAC | -0.0339
166 | GCTTGCGA | 0.131
167 | ATTCATTG | -0.0641
168 | CTGATCCC | -0.111
169 | CTACATAG | -0.201
170 | GACCCGCC | 0.0762
171 | ATAAGTGA | -0.0169
172 | AGCTGCCC | 0.0483
